Results: article PMC12136788
The list shows a part of the results.

B1: chr8:80637648:80637749:-|3pUTR|ENSG00000164684|unk|FALSE|unique (ssRNA)
RNA: GGGAGUUCUACAGUCCGACGAUCUGCGCUUAGCUGCAAAGUGCCUGUCAGCAGCUCCAGGCACCAACAAGGUGCCCUUUUAUUAGACAAUUCCUGCCCGAACAUAACCAUAUUGCAGAUGAAAAUUUUCAAUAGAGAAUGACACAACAGAGGAUUGAGCAUCA
B2: chr5:6669452:6669553:+|3pUTR|ENSG00000145545|unk|total|mutant (ssRNA)
RNA: GGGAGUUCUACAGUCCGACGAUCCAUCUCAUCUGGAGUUUUUAAAUGCCAUUUGUUUCAGUUGUCUUUAACAACAUAAUAAACCGACUUUGCCAUUUAACAAGGCCGCUCAAAUUCUUUUACUAAUUGUUACAUCGAAACAUUCAACAGAGGAUUGAGCAUCA
B3: chr1:17283265:17283432:+|3pUTR|ENSG00000142619|msi1|FALSE|unique (ssRNA)
RNA: GGGAGUUCUACAGUCCGACGAUCCAUGUGGUUCUCAGACUUGAAUCUUCUCGGCCCCCCAAAAAGAAGGACCUCAUUUCUUAUAGCCUCUCCUGUGAUUCAACACAACCCAUGGAGAUGUCCCCUUCUCACUCUGAAAUCAUCCAACAGAGGAUUGAGCAUCA
B4: chr4:76435395:76435496:+|5pUTR|ENSG00000138771|msi1|FALSE|unique (ssRNA)
RNA: GGGAGUUCUACAGUCCGACGAUCUUUUCUCUCCUAAGAAACAAACUAUGAACUGAUUGUUGAAAAAAAGAAGUAAAAAGUUUUAGCACAGCUUCUCUGUCUCUUCGGGACAAGUUAGAAAAUUCUGAAGUGAGCCGAAGCAUACAACAGAGGAUUGAGCAUCA
B5: chr12:56205560:56205676:-|3pUTR|ENSG00000181852|unk|FALSE|unique (ssRNA)
RNA: GGGAGUUCUACAGUCCGACGAUCCUCUUGUGGCACAGGCCAUAAUUGUUCCAUAGACCCCUCUCUAGCCCUGUGACUGUAGUUAGUUACUUUGAUAAUUUUCUUUGGCCAUUGUUUGUUUAUAUUUCACAAACUCCACCUACUCAACAGAGGAUUGAGCAUCA
B6: chr17:2060671:2060772:-|3pUTR|ENSG00000070366|unk|FALSE|unique (ssRNA)
RNA: GGGAGUUCUACAGUCCGACGAUCCCGUGCUCUCGGGUGGCCUCCACCUGCUCCCUCUCUCCUCACUGGCCUUUCUUUCCGUCUAGCUUCCUCUUCAGGAAAUGUCCUGACUCCCCUCAGCUCCCCCUUCACCCCUCCUUGCCCCAACAGAGGAUUGAGCAUCA
B7: chr1:248294618:248295578:-|CDS|ENSG00000177201|control|control|control (ssRNA)
RNA: GGGAGUUCUACAGUCCGACGAUCUGGCUGUGGUGUGCAGAUCUUCUUCCUCCCCACACUGGGUGGUGGAGAGUGCUUCCUCUUAGCAGCCAUGGCCUAUGACCGCUAUGCGGCUGUCUGCCACCCACUCCGAUAUCCCACUCUCAACAGAGGAUUGAGCAUCA
B8: chrX:130625084:130625185:-|3pUTR|ENSG00000165675|msi1|FALSE|unique (ssRNA)
RNA: GGGAGUUCUACAGUCCGACGAUCAGUUCCUUUGAAUUUGUCAGUUCAUUCCUGGAAAAUCUUUUGAGUUAAAAUAAGGAUCCUAGGACAGCACCUCGAACUACAGGCCCUAAAGAGAAAUUGCCUCAAACCACAAGUGCUGUACAACAGAGGAUUGAGCAUCA
B9: chr11:61799969:61800070:-|3pUTR|ENSG00000149485|msi1|FALSE|unique (ssRNA)
RNA: GGGAGUUCUACAGUCCGACGAUCUUCUUUGCCACCUUUUGGGUGUGGUGUCACCAGCCUGUUUAGCCAAGUAGCUUUGGGCAUAGGCUGCCCAAUCUGAGCAAACACCAGUGAGGCUCUAUUGAGCCAAGACCAAGUCCUCAACAACAGAGGAUUGAGCAUCA
B10: chr16:74449243:74449344:-|3pUTR|ENSG00000090863|msi1|total|mutant (ssRNA)
RNA: GGGAGUUCUACAGUCCGACGAUCUCUCCUAUCCUCCCAUCCUCCAGGCCUGUGGUGUGACUUCUGCCCCGAAGUUCCUACUACCGUGAGUCAUCUGGGGAGAGGCCACUGAAAAGAGGCCUUCCCUUCCCAUUUCCUCCCCUGCAACAGAGGAUUGAGCAUCA
B11: ENSG00000107863:be:win_5501|CDS|ENSG00000107863|bound_else_gene|NA|bound_elsewhere_windowed (ssRNA)
RNA: GGGAGUUCUACAGUCCGACGAUCCUGUAAACCGGUUAAAACCAAAAUGCUCAGCCCAGGACCUUUCCAUCUCAGACUGGCUGGCCAGGGAACGCCUACGCACCAGUACCUCUGACCUUAGCAGAGGAGAAAUCGGAGAUCCCCCAACAGAGGAUUGAGCAUCA
B12: ENSG00000106682:stop:overlap|stop_codon|ENSG00000106682|stop_codon|NA|stop_codon (ssRNA)
RNA: GGGAGUUCUACAGUCCGACGAUCCUUCCCCUGGAAGGUUCAGGAGAGUAUUUGUCGCCUGGUUGCUUUUACAUCAUGCUGAUUAGACCUGCACACCCGGGCAUGAAAUGAGUGUGAUUGCAUCAUUUUCAUAGAACCUAAUGGCAACAGAGGAUUGAGCAUCA
B13: chr11:20156216:20156573:-|CDS|ENSG00000109851|control|control|control (ssRNA)
RNA: GGGAGUUCUACAGUCCGACGAUCAUCUGGUUCCAGAACCGACGCAUGAAAUGGCGGAACUCCAAGGAGCGCGAACUCCUGUCUAGCGGGGGCUGUCGCGAGCAGACCCUGCCCACCAAGCUCAAUCCGCACCCGGACCUCAGCCAACAGAGGAUUGAGCAUCA
B14: chr15:58589816:58589917:-|3pUTR|ENSG00000137845|unk|FALSE|unique (ssRNA)
RNA: GGGAGUUCUACAGUCCGACGAUCAUUCAUUUGCUGAAGAGCUGGCUUGUACUUUGGCAGGUGUCAUACUUGGUUAUUCUCCUUAGGAUAUUGGCCCAACAAUCUGGGAGUUGUGAAAGGCGCUUCGCUUUUCAGACCUGGGCGCAACAGAGGAUUGAGCAUCA

Target: MSI1 full-length (mouse, UniProt Q61474 1-362)
UniProt Q61474, sequence (Q61474 whole entry): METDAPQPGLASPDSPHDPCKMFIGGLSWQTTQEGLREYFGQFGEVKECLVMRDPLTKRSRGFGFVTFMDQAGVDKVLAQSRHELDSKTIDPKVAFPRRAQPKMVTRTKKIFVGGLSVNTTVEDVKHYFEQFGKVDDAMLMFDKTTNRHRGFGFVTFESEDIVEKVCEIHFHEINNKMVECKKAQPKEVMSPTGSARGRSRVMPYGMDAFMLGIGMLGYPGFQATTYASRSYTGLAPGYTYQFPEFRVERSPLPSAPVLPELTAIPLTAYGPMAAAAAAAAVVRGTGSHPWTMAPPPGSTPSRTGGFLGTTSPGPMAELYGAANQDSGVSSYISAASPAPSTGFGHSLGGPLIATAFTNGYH
Experiment: nsRBNS (natural sequence RNA bind-n-seq); RBNS binding buffer (assumed for nsRBNS): 25 mM Tris pH 7.5, 150 mM KCl, 3 mM MgCl2, 0.01% Triton X-100, 500 ug/ml BSA, 20 U/ml SUPERase-In, 4 C; UNK is unkempt and MSI1 is Musashi-1; names of the RNAs are library labels; protein concentration not given here; high values mean tight binding

Binder | binding signal
B1 | 1 enrichment R
B2 | 0.413 enrichment R
B3 | 0.371 enrichment R
B4 | 2.25 enrichment R
B5 | 11.2 enrichment R
B6 | 0.815 enrichment R
B7 | 0.421 enrichment R
B8 | 0.482 enrichment R
B9 | 0.723 enrichment R
B10 | 0.452 enrichment R
B11 | 0.497 enrichment R
B12 | 0.516 enrichment R
B13 | 0.3 enrichment R
B14 | 0.378 enrichment R
